Screen size: about 1,100 compounds; about 70 (6%) were called active. Roughly 22% stayed inconclusive and do not appear here. Calls follow the shape of the dose curve; as a rule, active = well fitted curve in the direction sought with a large enough effect; inconclusive = small, poorly fitted or top-dose-only effect, or another doubt; inactive = no such curve, though single readings can be large or run the other way. Some of the results follow.
Biological target: Polyunsaturated fatty acid lipoxygenase ALOX12 (Homo sapiens) (UniProt P18054)
Chain of UniProt P18054 (P18054 whole entry, looked up): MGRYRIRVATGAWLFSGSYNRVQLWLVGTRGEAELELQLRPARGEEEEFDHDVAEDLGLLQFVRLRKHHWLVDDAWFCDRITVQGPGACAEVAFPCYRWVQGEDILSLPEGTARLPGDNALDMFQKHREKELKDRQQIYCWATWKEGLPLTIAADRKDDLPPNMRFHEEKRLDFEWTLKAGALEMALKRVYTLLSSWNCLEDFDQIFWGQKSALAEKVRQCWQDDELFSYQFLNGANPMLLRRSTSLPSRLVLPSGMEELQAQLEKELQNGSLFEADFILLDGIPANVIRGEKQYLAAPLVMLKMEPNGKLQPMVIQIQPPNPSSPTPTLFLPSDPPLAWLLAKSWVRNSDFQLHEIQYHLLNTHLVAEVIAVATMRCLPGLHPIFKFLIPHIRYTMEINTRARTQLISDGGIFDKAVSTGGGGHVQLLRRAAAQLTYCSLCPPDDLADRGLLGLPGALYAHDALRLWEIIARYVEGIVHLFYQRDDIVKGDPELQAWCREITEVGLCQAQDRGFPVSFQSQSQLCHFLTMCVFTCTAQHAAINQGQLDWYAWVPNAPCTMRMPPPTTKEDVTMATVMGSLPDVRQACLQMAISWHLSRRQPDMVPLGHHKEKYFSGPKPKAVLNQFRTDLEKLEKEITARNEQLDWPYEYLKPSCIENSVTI
Test: Confirmatory qHTS assay for inhibitors of human arachidonate 12S-lipoxygenase (ALOX12): Round 2
Conditions: purified human 12-LOX, xylenol orange absorbance; series mostly up to 125 µM; activity change, negative = inhibition: at the top concentration
Text: Assay Provider: Theodore R. Holman Ph.D. University of California, Santa Cruz, California Human lipoxygenase 12hLO is a member of the closely related lipoxygenase family of enzymes which catalyze the site-specific oxidation of arachidonic acid to various hormone precursor molecules and as such is a candidate for drug development in a variety of disease areas, such as cancer and inflammation. Inhibition of 12hLO activity was screened by utilizing arachidonic acid as a substrate. The extent of hydroperoxide product formation was measured by a secondary chromogenic reaction in which xylenol orange (XO, Sigma-Aldrich, cat. number 39,818-7) reacts with the ferric ions produced from the reaction between the hydroperoxide and ferrous ions. The Fe (III)-XO complex is characterized with red-shifted absorbance at 560 nm. A purified preparation of human 12hLO was supplied by Dr. Holman laboratory, University of California, Santa Cruz.
PROTOCOL TABLE SEQUENCE No. (e.g., 1, 2, 3, etc.); […] (e.g., Cells, Incubation, Reagent, etc.); VALUE; DESCRIPTION 1; Enzyme; 3 uL; 150 nM 12hLO enzyme solution dispensed in 1536-well Greiner black, clear bottom plates. 2; Compound; 23 nL; compounds and controls were added. 3; Incubate; 15 min; room temperature. 4; Substrate; 1 uL; 40 uM arachidonic acid (final concentration). 5; Incubate; 30 min; room temperature. 6; Reagent; 4 uL; Fe-XO solution was added to each well. 7; Incubation; 30 min; room temperature 8; Detector; absorbance; Read 1 at 405 nm absorbance using ViewLux (PerkinElmer) CCD imager. 9; Detector; absorbance; Read 2 at 573 nm absorbance using ViewLux (PerkinElmer) CCD imager. NOTES (numbers refer to sequence above) 1; 150 nM 12hLO (final concentration) in buffer solution (25 mM Hepes, 0.01% Triton X-100, pH 7.0) was dispensed in columns 1, 2, 5-48. Column 1 is neutral (100% activity). Buffer only was dispensed in columns 3 and 4 as no enzyme negative controls. The plates were covered with metal lids with gas-exchange holes. 2; Compounds were pin transferred via a Kalypsys Pin Tool (Wako USA) in column 5 - 48. Control compound was transferred in column 2, titration of nordihydroguaiaretic acid (NDGA, Sigma-Aldrich, N5023) with top concentration of 20 mM in DMSO then 1:3 dilution in duplicate. Dilution factor of 23 nL into 4 uL final assay volume. 3; Covered assay plates were incubated for 15 min at room temperature. 4; Substrate was added to start the reaction; 40 uM arachidonic acid (Sigma-Aldrich, St. Louis, MO) was dispensed throughout the plate. 6; Chromogenic detection reagent solution (divalent iron/xylenol orange, Fe-XO) was added to each well: 200 uM xylenol orange, 300 uM ferrous ammonium sulfate prepared freshly in 50 mM sulfuric acid. 8, 9; Two absorbance readouts were obtained at 405 nm and at 573 nm using a ViewLux high-throughput CCD plate imager (PerkinElmer). The 573 to 405 (Read 2 / Read 1) absorbance ratio was used to compute reaction progress.
% is scaled to controls: 0 for no effect and ±100 for the full control effect; potency is read from the fitted curve at half-maximal effect.

SMILES	Potency	activity change, negative = inhibition
CCOC(=O)Cn1c(=O)n(-c2ccccc2OC)c2nc(-c3cccc(F)c3)nc(C(N)=O)c21	active: 4.4 µM	–
O=C(N1CCOCC1)N1CCC(c2nnc3n2CCNC3)CC1	–	inactive: -2.44%
CC(C)CCN1CCC2(C1)C(=O)N(c1ccccc1)c1ccccc12 (stereo unspecified)	–	inactive: -13.1%
CN1CC(=O)N(C2CCNCC2)Cc2c(NCCOc3ccccc3)ncnc21	–	inactive: -11.1%
O=C(c1cc(C2CC2)nc2onc(C3CCCN3)c12)N1CCC(F)CC1 (stereo unspecified)	–	inactive: -12.7%
CNCc1ccccc1Cl	–	inactive: -9.03% [at 233 µM]
CO[C@H]1C(=O)N(C2CCN(C(=O)c3cccc4[nH]ccc34)CC2)[C@H]1c1ccncc1	–	inactive: -11.8% [at 64.5 µM]
CN1CC(=O)N(C2CCCNCC2)Cc2c(NCCO)ncnc21 (stereo unspecified)	–	inactive: -8.04%
COc1ccc(CN2CCCCC23Cc2ccccc2CNC3=O)c(OC)c1 (stereo unspecified)	–	inactive: -10.6%
O=C1NC(=NC2CCCC2)C2(CCN(CC3CCCCC3)CC2)N1c1cc(F)cc(F)c1	–	inactive: -13.5%
NCCC(=O)N1CCCC2(Cc3ccccc3CN2C(=O)c2ccccc2)C1 (stereo unspecified)	–	inactive: -2.46%
COCCCN1C(=O)N(Cc2nncn2C(C)C)C(=O)C12CCNCC2	–	inactive: -11.6% [at 64.5 µM]
O=C1NCc2ccccc2CC12CCCN2Cc1ccccc1Cl (stereo unspecified)	–	inactive: -6.54%
O=C(N1CCOCC1)N1CCN(c2ccc(Cl)nn2)C(=O)C1	–	inactive: -15.4%
COCCNC(=O)c1cc(-c2ccc(OC)cc2)nc2onc(C3CCCN3)c12 (stereo unspecified)	–	inactive: -22.6%
COc1cccc(-c2ccc(CN3C4CCC3CN(C(=O)Nc3ccccc3F)C4)cc2)c1	–	inactive: -25.4%
N#Cc1cc2nc(O)c(O)nc2cc1[N+](=O)[O-]	–	inactive: -5.48%
COc1ccc(N2CC3CCC(C2)N3C(=O)c2ccc3c(c2)OCO3)cc1	–	inactive: -19.9%
CN1CC(=O)N(C2CCNC2)Cc2c1ncnc2N1CCC(N)CC1 (stereo unspecified)	–	inactive: -5.34%

SMILES	Potency	activity change, negative = inhibition
O=C(c1ccccc1)N1Cc2ccccc2CC2(CCN(CC3CCNC3)C2)C1 (stereo unspecified)	–	inactive: -11.4%
O=C(O)CCC(=O)N1Cc2ccccc2CC2(CCCN2Cc2cccnc2)C1 (stereo unspecified)	–	inactive: -6.82%
COc1cccc(N2C(=O)NC(=NC3CCCCC3)C23CCCN([S+](=O)([O-])c2cccs2)C3)c1 (stereo unspecified)	–	inactive: -25.9%
CC(C)OCCCNc1ncnc2c1CN(C1CCNC1)C(=O)CN2C (stereo unspecified)	–	inactive: -16.7%
COCc1nc(NCCCN2CCOCC2)cc(C2CC(N)C2)n1 (stereo unspecified)	–	inactive: -4.73% [at 64.5 µM]
CCCC(=O)N1Cc2ccccc2CC2(CCN(Cc3ccc(O)cc3)C2)C1 (stereo unspecified)	–	inactive: -12.5%
CC(C)NC(=O)N1CCCC1c1nnc2n1CCNC2 (stereo unspecified)	–	inactive: -22.2%
CC(=O)Nc1ccc(C(=O)N2C3CCC2CN(C(C)C)C3)cc1	–	inactive: -3.98%
NCc1ccc(-c2ccccn2)cc1	–	inactive: -1.69% [at 233 µM]
OCC#CCSc1nnc(-c2cccc3ccccc23)o1	–	inactive: -4.67% [at 64.5 µM]
COc1ccc(CC(=O)N2Cc3ccccc3CC3(CCN(CC4CCNC4)C3)C2)cc1 (stereo unspecified)	–	inactive: -6.64%
CC(C)c1ccc(CNC(=O)C2CCN(c3cc(C(F)(F)F)ncn3)CC2)cc1	–	inactive: 3.84% [at 64.5 µM]
O=C1NCc2ccccc2CC12CCCN2Cc1ccc(O)cc1O (stereo unspecified)	–	inactive: -18.7%
Nc1ccc(CN2CCCC3(Cc4ccccc4CNC3=O)C2)cc1 (stereo unspecified)	–	inactive: -12.3%
Cc1ccc(CN2CCC3(CC2)Cc2ccccc2CNC3=O)cc1C	–	inactive: -18.2%
CN(C)CC(=O)N1Cc2ccccc2CC2(CCCN(CC3CCNC3)C2)C1 (stereo unspecified)	–	inactive: -3.79%
COc1ccccc1NC1CN(C(=O)OC(C)(C)C)C1	–	inactive: -21.4%
COc1cccc(CCn2ccnc2-c2cc3n(n2)CCCNC3)c1OC	–	inactive: 12% [at 64.5 µM]
CCC(=O)N1Cc2ccccc2CC2(CCCCN2CC2CCOCC2)C1 (stereo unspecified)	–	inactive: -11.8%

SMILES	Potency	activity change, negative = inhibition
Cc1cc(C(=O)N2CCC(F)CC2)c2c(C3CCCN3)noc2n1 (stereo unspecified)	–	inactive: -10.6%
Cn1nc(C2CCCNC2)c2c(C(=O)NCC(F)(F)F)cc(C3CC3)nc21 (stereo unspecified)	–	inactive: -21.6%
CC(CCc1ccccc1)Nc1ncnc2c1CN(C1CCNC1)C(=O)CN2C (stereo unspecified)	–	inactive: -16.1%
Cc1cc(C(=O)NCc2c(C)ncc3c2CCNC3)ccc1F	–	inactive: -0.721% [at 64.5 µM]
COc1cc(OC(F)(F)F)ccc1C(=O)NCc1nnc2n1C(C(=O)O)CC2 (stereo unspecified)	–	inactive: -0.939%
COc1cccc(N2C(=O)NC(=NC3CCCCC3)C23CCN(C(=O)c2ccccc2OC)C3)c1 (stereo unspecified)	–	inactive: -9.12%
Cc1ccc(C(=O)N2CCn3c(nnc3C3CCNCC3)C2)cc1	–	inactive: -13.1%
CC(C)(Oc1nn(Cc2cccc(Cl)c2)c2ccccc12)C(=O)NCCCn1ccnc1	–	inactive: 13.6% [at 64.5 µM]
OC[C@@H]1CN(Cc2cccc3[nH]ccc23)C[C@H]1c1ccncc1	–	inactive: -2.39% [at 64.5 µM]
Cc1ncc([N+](=O)[O-])n1CC(C)O (stereo unspecified)	–	inactive: -17.2%
COC(=O)[C@@H]1Cc2nc[nH]c2CN1C(C)C	–	inactive: 5.41% [at 233 µM]
O=C(c1ccncc1)N1CCN(c2ccc(Cl)nn2)C(=O)C1	–	inactive: -21.2%
O=C(NCc1ccc(Cl)nc1)c1cn2c(n1)CN(C(=O)c1ccccc1)CC2	–	inactive: -4.72%
NCC(=O)N1Cc2ccccc2CC2(CCN(CC3CCNC3)C2)C1 (stereo unspecified)	–	inactive: -11.4%
O=C(O)Cn1nc(-c2ccncc2)nc1C1CCOC1 (stereo unspecified)	–	inactive: -9.74% [at 64.5 µM]
COC(=O)CNC(=O)C1CCc2nnc(CNC(=O)c3cccnc3)n21 (stereo unspecified)	–	inactive: -6.06%
CC(=O)N1CCn2cc(C(=O)N3CCOCC3)nc2C1	–	inactive: -9.94%
COc1ccc(N2CC3CCC(C2)N3C(=O)NC(C)C)cc1	–	inactive: -10%
